According to PubChem BioAssay AID1768 (National Center for Advancing Translational Sciences (NCATS), 2009):
The campaign covered roughly 270,000 compounds. About 620 (0.23%) were called active. The inconclusive results got no clear call from the source; some entries with a clear call stand among them for comparison. Calls follow the shape of the dose curve; as a rule, active = well fitted inhibition curve with a large enough effect in the polarisation, with a control signal flat (not every such curve was filed as active); inconclusive = small, poorly fitted or top-dose-only effect, or effect the other way, or a change in a side signal; inactive = no such curve, though single readings can be large or run the other way; the % refers to the polarisation. A potency beside an inconclusive call is a rough fit, not a confirmed value. A note “side channel” means that the fit belongs to a control or component signal, not to the main read-out.

These compounds were tested against Menin (Homo sapiens) (UniProt O00255) (assay: qHTS Assay for Inhibitors Targeting the Menin-MLL Interaction in MLL Related Leukemias: Competition With Texas Red Labeled MLL-derived Mutant Peptide). Settings: fluorescence polarization; FP activity change, negative = inhibition: at 61.6 µM (top of the series).
Sequence of UniProt O00255 (O00255 whole entry, looked up): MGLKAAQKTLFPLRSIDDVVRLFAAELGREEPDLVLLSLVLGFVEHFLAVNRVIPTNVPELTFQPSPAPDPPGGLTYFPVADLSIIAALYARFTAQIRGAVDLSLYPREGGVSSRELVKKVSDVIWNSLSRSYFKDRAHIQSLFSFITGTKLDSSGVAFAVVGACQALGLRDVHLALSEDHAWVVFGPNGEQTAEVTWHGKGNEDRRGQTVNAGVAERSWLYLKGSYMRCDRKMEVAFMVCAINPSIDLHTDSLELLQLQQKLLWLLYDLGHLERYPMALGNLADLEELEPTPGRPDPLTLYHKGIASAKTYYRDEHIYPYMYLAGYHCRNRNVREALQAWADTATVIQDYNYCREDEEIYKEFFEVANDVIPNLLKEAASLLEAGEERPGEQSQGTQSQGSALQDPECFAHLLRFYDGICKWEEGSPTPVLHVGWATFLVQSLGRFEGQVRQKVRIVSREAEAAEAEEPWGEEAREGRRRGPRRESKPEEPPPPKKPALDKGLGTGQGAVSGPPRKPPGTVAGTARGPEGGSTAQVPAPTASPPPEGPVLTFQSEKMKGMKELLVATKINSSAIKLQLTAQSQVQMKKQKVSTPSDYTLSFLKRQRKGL

For FP activity change, negative = inhibition in this document: % of control where 0% means no effect.
Potency is read from the fitted curve at half-maximal effect; tags tell the direction and shape of the fitted curve or compound fluorescence and quenching.

Potency, inconclusive:
Clc1ccc(SCc2nc3ccccc3[nH]2)cc1 35.5 µM [quencher, side channel, single point], Cc1cc(N/N=C/c2ccccc2O)c2ccccc2n1 15.8 µM [quencher, side channel, partial curve], N=C1/C(=C\c2ccc(OC(=O)c3ccc(F)cc3)cc2)C(=O)N=C2SC(N3CCCC3)=NN12 25.1 µM [quencher, side channel, single point], O=C(Nc1ccccc1)c1ccccc1O 39.8 µM [quencher, side channel, single point], COc1cc(NC(=S)NCCc2c[nH]c3ccccc23)c(OC)cc1Cl 10 µM [quencher, side channel, partial curve], O=C(CSc1nc2nc(-c3cccs3)cc(C(F)(F)F)c2c(=O)[nH]1)Nc1ccc(F)c(F)c1 17.8 µM [quencher, side channel, partial curve], COC(=O)CC(=O)CSc1nc2c(cc1C#N)CCC2 10 µM [inhibitor, partial curve], COc1cccc(OC)c1C(=O)OCC(=O)NC(=O)NCc1ccccc1 0.631 µM [inhibitor, partial curve, poor fit], COc1ccccc1NC(=S)NC(=O)Cc1ccc(Cl)cc1 39.8 µM [fluorescent, side channel, single point], CCC(C)(C)NC(=O)C(c1ccccc1F)N(C(=O)c1ccn[nH]1)c1ccccc1 (configuration not stated) 39.8 µM [inhibitor, single point], CN(C(=O)C1CCOC1)c1nnc(-c2cccnc2)s1 (configuration not stated) 12.6 µM [inhibitor, partial curve, poor fit], Cc1onc(-c2c(Cl)cccc2Cl)c1C(=O)N/N=C(\N)COc1ccc(Cl)cc1 14.1 µM [quencher, side channel, partial curve], COC(=O)CNc1nc(-c2ccncc2)nc2ccccc12 14.1 µM [inhibitor, partial curve], Cc1cccc(C(=O)Nc2ccccc2C(=O)OCC(=O)Nc2ccc(C#N)cc2)c1 7.94 µM [quencher, side channel, full curve], O=C(Nc1cccc(NC(=O)c2ccc(Cl)cc2Cl)c1)c1cccnc1 39.8 µM [fluorescent, side channel, single point], Cc1cccc(-c2nnn3c2nc(NCCc2ccc(S(N)(=O)=O)cc2)c2ccccc23)c1 3.16 µM [quencher, side channel, full curve], NNC(=O)c1oc2nc(-c3cccs3)cc(-c3ccco3)c2c1N 31.6 µM [quencher, side channel, single point], NC(=S)n1[nH]c(-c2ccccc2)c(N=Nc2ccccc2C(=O)N2CCOCC2)c1=O 12.6 µM [quencher, side channel, partial curve], CCCN1C(=O)c2ccc(C(=O)Nc3ccccc3C(=O)O)cc2C1=O 10 µM [quencher, side channel, partial curve], O=C(CCN1C(=O)/C(=C\c2ccccc2)SC1=S)NNC(=O)c1ccccc1O 15.8 µM [quencher, side channel, partial curve], COc1ccc(C)cc1NC(=O)CNC(c1ccccc1)c1ccccc1 11.2 µM [inhibitor, partial curve], O=C(C1=C[C@@H](c2ccc(Br)cc2)C[C@@H](OCc2ccc(CO)cc2)O1)N1CCN(Cc2ccccc2)CC1 2.51 µM [fluorescent, side channel, full curve], CCCN(CCC)c1nc2ccccc2nc1C(C#N)C(=O)OC(C)COC (configuration not stated) 28.2 µM [fluorescent, side channel, partial curve], COc1ccc(/C=C/c2nc3ccccc3c(=O)n2-c2cccc(C(=O)O)c2)cc1 25.1 µM [inhibitor, partial curve], C(=N\n1c2ccccc2c2ccccc21)/c1ccccc1 7.08 µM [quencher, side channel, full curve], COc1ccc(Oc2cn[nH]c2-c2ccc(OCC(=O)NN)cc2O)cc1 22.4 µM [quencher, side channel, single point], COc1ccc(N2CCN(C(=O)C3Cc4ccccc4CN3C(=O)c3ccccc3)CC2)cc1 (configuration not stated) 8.91 µM [fluorescent, side channel, full curve], Cc1cc(NCCCn2ccnc2)n2ncc(-c3ccc(Cl)cc3)c2n1 14.1 µM [quencher, side channel, partial curve], CCc1ccc(OCCNC(=O)c2ccccc2SCc2ccc(F)cc2)cc1 12.6 µM [inhibitor, partial curve], CN(C)c1ccc(NC(=O)Nc2cccc3ccccc23)cc1 25.1 µM [quencher, side channel, partial curve], Cc1cccc(N=C2NC(=O)/C(=C/c3cccs3)S2)c1 11.2 µM [quencher, side channel, partial curve], O=C1CC(SC(=Nc2ccccc2)Nc2ccccc2)C(=O)N1c1ccc(Cl)cc1 (configuration not stated) 3.16 µM [quencher, side channel, partial curve], Cc1cccc(CN2CCCC(C(=O)c3ccc4c5c(cccc35)CC4)C2)n1 (configuration not stated) 31.6 µM [inhibitor, partial curve], CC(=O)Nc1cccc(NC(=O)Cc2nc(-c3ccccc3)sc2-c2ccc(C)cc2)c1 11.2 µM [quencher, side channel, partial curve], Cc1ccccc1Cn1cc(CCC(=O)N2CCOCC2)c2ccccc21 22.4 µM [fluorescent, side channel, partial curve], CCc1ccc(-c2csc(-c3c[nH]c4ccccc34)n2)cc1 39.8 µM [quencher, side channel, single point], COc1ccc(-c2c[n+](CC(=O)OC3CC(C)CCC3C(C)C)c3n2CCC3)cc1 (configuration not stated) 1.78 µM [fluorescent, side channel, full curve], O=S(=O)(Nc1cc(Sc2cccc3cccnc23)c(O)c2ccccc12)c1ccccc1 22.4 µM [quencher, side channel, partial curve], O=C(N/N=C/c1cccnc1)c1cc2ccccc2cc1O 25.1 µM [quencher, side channel, partial curve], CN(C)S(=O)(=O)c1cc(NC(=O)c2ccc(-n3ccnc3)c([N+](=O)[O-])c2)ccc1Cl 25.1 µM [quencher, side channel, single point], COc1ccc(N(C(=O)c2ccco2)C(C(=O)NC2CCCC2)c2cccnc2)c(OC)c1 (configuration not stated) 35.5 µM [inhibitor, single point], Cc1cc(=O)oc2n[nH]c(-c3ccccc3)c12 10 µM [inhibitor, partial curve], S=c1[nH]nc(COc2ccccc2)n1/N=C/c1ccccc1Cl 35.5 µM [quencher, side channel, single point], COc1ccc(N2CCN(C(=O)c3cc(=O)c4cc(C)c(C)cc4o3)CC2)cc1 10 µM [fluorescent, side channel, partial curve], Cc1oc(-c2ccccc2)cc1C(=O)Nc1ccc(N(C)C)cc1 28.2 µM [quencher, side channel, single point], COc1ccc(-n2nc([N+](=O)[O-])c(=NCCc3ccc(Cl)cc3)n2O)cc1 31.6 µM [quencher, side channel, single point], Cc1ccc(C(=O)N/N=C/c2ccc(S(=O)(=O)O)o2)c(Cl)c1 0.316 µM [inhibitor, full curve, poor fit], COc1ccc(OC)c(C2NC(=O)c3sc(=S)n(-c4ccccc4)c3N2)c1 (configuration not stated) 39.8 µM [quencher, side channel, single point], COc1ccc(CC2(CO)CCN(Cc3ccc4c(c3)CCO4)CC2)cc1 10 µM [fluorescent, side channel, partial curve]

FP activity change, negative = inhibition, inactive:
COc1cccc([C@@H]2Oc3ccc(OC)cc3/C(=N/O[C@@H](C)CN3CCCCc4nc(C)c(C)cc43)[C@@H]2O)c1 -8.42% [at 11.7 µM], CCOC(=O)c1nnn(-c2nonc2N)c1-c1ccc(OC)cc1 -8.07%, O=C(N/N=C/c1ccccn1)c1cccc([N+](=O)[O-])c1 -2.75%, O=C(NCc1ccccn1)c1coc(=O)c(Br)c1 1.95%, COc1ccccc1N1CCN(c2ccnc3cc(Cl)ccc23)CC1 -16.7%, Cc1ccc2c(c1)S/C(=C/c1ccc[n+](C)c1)N2CCO -17.7%, Oc1ccc(/C=N/Nc2cc(N3CCCC3)nc(N3CCCC3)n2)cc1 -21.9%, N#Cc1c(N)n(CCCN2CCOCC2)c2nc3ccccc3nc12 -7.06%
